Results reported in the RNAGym collection of RNA variant scans (doi:10.1101/gad.245936.114).
Variants at the floor of the assay are shown more often than the library holds them.

B1: tRNA (parent)
chain: CUCUCGGUAGCCAAGUUGGUUUAAGGCGCAAGACUUUAAUUUAUCACUACGAAAUCUUGAGAUCGGGCGUUCGACUCGCCCCCGGGAGAUUUUUUCCUCGAGCAA

Variants of: B1
Assay: nonsense suppression (GFP-seq) (ratio to wild type); higher = more function; SUP4oc tRNA, yeast GFP reporter sort-seq
In short: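 Yeast carrying genome-integrated SUP4oc tRNA variants from a library with ~3% random mutations were grown in raffinose/galactose medium with 80 mg/L adenine. Each strain also carried a galactose-driven GFP ochre reporter and RFP. Cells were sorted into GFP/RFP bins, and each bin was Illumina-sequenced (phred ≥30). Nonsense suppression (GFPSEQ) is the bin median GFP/RFP, weighted by each variant's estimated cell share per bin, relative to wild-type SUP4oc; variants needed ≥100 reads and ≥30 cells.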

Nonsense suppression, ≤ 0.026:
CUCUCGGUAGCCAAGUUGGUUUAAGGCGCAAGACUUUAAUUUAUCACUACGAAAUCUUGAGAUCGGGGGUUCGAAUCGCCCACGGUAGAUUUUUUCCUCGAGCAA
CUCUCGGUAGCCAAGUUGGUUUAAGGCGCAAGACUUUAAUUUAUCACUACGAAAUCUUGAGAUCGGGGGUUCGACUCGCGCCCGGGAGAUUUUUUCCUCGAGCAA
CUCUCGGUAGCCAAGUUGGUUUAAGGCGCAAGACUUUAAUUUAUCACUACGAAAUCUUGAGAUCGGGGAUUCGACUCGCCCCCGGGAGAUUUUUUCCUCGAGCAA
CUCUCGGUAGCCAAGUUGGUUUAAGGCGCAAGACUUUAAUUUAUCACUACGAAAUCUUGAGAUCGGGGGUUCGACUCGCCCCCGUGAGAUUUUUUCCUCGAGCAA
CUCUCGGUAGCCAAGUUGGUUUAAGGCGCAAGACUUUAAUUUAUCACUACGAAAUCUUGAGAUCGGGGGUUCGACUCGCCCCCGGAAGAUUUUUUCCUCGAGCAA
CUCUCGGUAGCCAAGUUGGUUUAAGGCGCAAGACUUUAAUUUAUCACUACGAAAUCUUGAGAUCGGGGGCUCGACUCGCCCCCGGGAGAUUUUUUCCUCGAGCAA
CUCUCGGUAGCCAAGUUGGUUUAAGGCGCAAGACUUUAAUUUAUCACUACGAAAUCUUGAGAUCGGGGGUACGACUCGCCCCCGGGAGAUUUUUUCCUCGAGCAA
CUCUCGGUAGCCAAGUUGGUUUAAGGCGCAAGACUUUAAUUUAUCACUACGAAAUCUUGAGAUCGGGGGUUCGACCCGCCCCCGGGAGAUUUUUUCCUCGAGCAA
CUCUCGGUAGCCAAGUUGGUUUAAGGCGCAAGACUUUAAUUUAUCACUACGAAAUCUUGAGAUCGGGUGUUCGACUAGCCCCCGGGAGAUUUUUUCCUCGAGCAA
CUCUCGGUAGCCAAGUUGGUUUAAGGCGCAAGACUUUAAUUUAUCACUACGAAAUCUUGAGAUCGGGUGUUCGACUCGCCACCGGGAAAUUUUUUCCUCGAGCAA
CUCUCGGUAGCCAAGUUGGUUUAAGGCGCAAGACUUUAAUUUAUCACUACGAAAUCUUGAGAUCGGGUAUUCGACUCGCCCCCGGGAGAUUUUUUCCUCGAGCAA
CUCUCGGUAGCCAAGUUGGUUUAAGGCGCAAGACUUUAAUUUAUCACUACGAAAUCUUGAGAUCGGGUGUUCGACUCGCCCCCAGGAGAUUUUUUCCUCGAGCAA
CUCUCGGUAGCCAAGUUGGUUUAAGGCGCAAGACUUUAAUUUAUCACUACGAAAUCUUGAGAUCGGGUGUGCGACUCGCCCCCGGGAGAUUUUUUCCUCGAGCAA
CUCUCGGUAGCCAAGUUGGUUUAAGGCGCAAGACUUUAAUUUAUCACUACGAAAUCUUGAGAUCGGGCAUUCGACUCGCCCCCGGGAGAUUUUUUCCUCGAGCAA
CUCUCGGUAGCCAAGUUGGUUUAAGGCGCAAGACUUUAAUUUAUCACUACGAAAUCUUGAGAUCGGGCAUUCGCCUCGCCCCCGGGAGAUUUUUUCCUCGAGCAA
CUCUCGGUAGCCAAGUUGGUUUAAGGCGCAAGACUUUAAUUUAUCACUACGAAAUCUUGAGAUCGGGCAUUCGACUCGCCCCCGGGCGAUUUUUUCCUCGAGCAA
CUCUCGGUAGCCAAGUUGGUUUAAGGCGCAAGACUUUAAUUUAUCACUACGAAAUCUUGAGAUCGGGCAUUAGCCUCGCCCCCCGGAGAUUUUUUCCUCGAGCAA
CUCUCGGUAGCCAAGUUGGUUUAAGGCGCAAGACUUUAAUUUAUCACUACGAAAUCUUGAGAUCGGGCAUUCGAUUCGCCCCCGGCAGAUUUUUUCCUCGAGCAA
CUCUCGGUAGCCAAGUUGGUUUAAGGCGCAAGACUUUAAUUUAUCACUACGAAAUCUUGAGAUCGGGCAUUCGACUCGUCCCCGGGAGAUUUUUUCCUCGAGCAA
CUCUCGGUAGCCAAGUUGGUUUAAGGCGCAAGACUUUAAUUUAUCACUACGAAAUCUUGAGAUCGGGCAUUCGACUCGCGCCCGGGAGAUUUUUUCCUCGAGCAA
CUCUCGGUAGCCAAGUUGGUUUAAGGCGCAAGACUUUAAUUUAUCACUACGAAAUCUUGAGAUCGGGCAUUCGACUCGCCACCGGGAGAUUUUUUCCUCGAGCAA
CUCUCGGUAGCCAAGUUGGUUUAAGGCGCAAGACUUUAAUUUAUCACUACGAAAUCUUGAGAUCGGGCAUUCGACUCGCCCGCGGGAGAUUUUUUCCUCGAGCAA
CUCUCGGUAGCCAAGUUGGUUUAAGGCGCAAGACUUUAAUUUAUCACUACGAAAUCUUGAGAUCGGGCAUUCGACUCACCCCCGGUAGAUUUUUUCCUCGAGCAA
CUCUCGGUAGCCAAGUUGGUUUAAGGCGCAAGACUUUAAUUUAUCACUACGAAAUCUUGAGAUCGGGCAUUCGACUCUCCCCCGGGAGAUUUUUUCCUCGAGCAA
CUCUCGGUAGCCAAGUUGGUUUAAGGCGCAAGACUUUAAUUUAUCACUACGAAAUCUUGAGAUCGGGCAUUCGACUCGCCCCCGGUAGAUUUUUUCCUCGAGCAA
CUCUCGGUAGCCAAGUUGGUUUAAGGCGCAAGACUUUAAUUUAUCACUACGAAAUCUUGAGAUCGGGCAUUCGACUCGCCCCCGGGACAUUUUUUCCUCGAGCAA
CUCUCGGUAGCCAAGUUGGUUUAAGGCGCAAGACUUUAAUUUAUCACUACGAAAUCUUGAGAUCGGGCACUCGACUCGCCCCCGGGAGAUUUUUUCCUCGAGCAA
CUCUCGGUAGCCAAGUUGGUUUAAGGCGCAAGACUUUAAUUUAUCACUACGAAAUCUUGAGAUCGGGCAUUCGACACGCCCCCGGGAGAUUUUUUCCUCGAGCAA
CUCUCGGUAGCCAAGUUGGUUUAAGGCGCAAGACUUUAAUUUAUCACUACGAAAUCUUGAGAUCGGGCAUUCGACGCGCCCCCUGGAGAUUUUUUCCUCGAGCAA
CUCUCGGUAGCCAAGUUGGUUUAAGGCGCAAGACUUUAAUUUAUCACUACGAAAUCUUGAGAUCGGGCCUUCGACUCGCCCCCGGGAGAUUUUUUCCUCGAGCAA
CUCUCGGUAGCCAAGUUGGUUUAAGGCGCAAGACUUUAAUUUAUCACUACGAAAUCUUGAGAUCGGGCCUUCGCCUCGCCCCCGGUAGAUUUUUUCCUCGAGCAA
CUCUCGGUAGCCAAGUUGGUUUAAGGCGCAAGACUUUAAUUUAUCACUACGAAAUCUUGAGAUCGGGCCUUAGACUCGCCCCCGGGAGAUUUUUUCCUCGAGCAA
CUCUCGGUAGCCAAGUUGGUUUAAGGCGCAAGACUUUAAUUUAUCACUACGAAAUCUUGAGAUCGGGCCUUCGAAUCGCCCCCGGGAGAUUUUUUCCUCGAGCAA
CUCUCGGUAGCCAAGUUGGUUUAAGGCGCAAGACUUUAAUUUAUCACUACGAAAUCUUGAGAUCGGGCCUUCGACUGGCCCCCGGGAGAUUUUUUCCUCGAGCAA
CUCUCGGUAGCCAAGUUGGUUUAAGGCGCAAGACUUUAAUUUAUCACUACGAAAUCUUGAGAUCGGGCCUUCGACUCGCACCCGGGAGAUUUUUUCCUCGAGCAA
CUCUCGGUAGCCAAGUUGGUUUAAGGCGCAAGACUUUAAUUUAUCACUACGAAAUCUUGAGAUCGGGCCUUCGACUCGCCUCCAGGAGAUUUUUUCCUCGAGCAA
CUCUCGGUAGCCAAGUUGGUUUAAGGCGCAAGACUUUAAUUUAUCACUACGAAAUCUUGAGAUCGGGCCUUCGACUCCCCCCCGGGAGAUUUUUUCCUCGAGCAA
CUCUCGGUAGCCAAGUUGGUUUAAGGCGCAAGACUUUAAUUUAUCACUACGAAAUCUUGAGAUCGGGCCUUCGACUCGCCCCCGGGAAAUUUUUUCCUCGAGCAA
CUCUCGGUAGCCAAGUUGGUUUAAGGCGCAAGACUUUAAUUUAUCACUACGAAAUCUUGAGAUCGGGCCUCCGACGCGCCCCCGGGAGAUUUUUUCCUCGAGCAA
CUCUCGGUAGCCAAGUUGGUUUAAGGCGCAAGACUUUAAUUUAUCACUACGAAAUCUUGAGAUCGGGCCUUCGACACCCCCCCGGGAGAUUUUUUCCUCGAGCAA
CUCUCGGUAGCCAAGUUGGUUUAAGGCGCAAGACUUUAAUUUAUCACUACGAAAUCUUGAGAUCGGGCUUUCGACUCGCCCCCGGGAGAUUUUUUCCUCGAGCAA
CUCUCGGUAGCCAAGUUGGUUUAAGGCGCAAGACUUUAAUUUAUCACUACGAAAUCUUGAGAUCGGGCUUUGGACUCGCCCCCGGGAGAUUUUUUCCUCGAGCAA
CUCUCGGUAGCCAAGUUGGUUUAAGGCGCAAGACUUUAAUUUAUCACUACGAAAUCUUGAGAUCGGGCUUUCGAGUCGCCCCCGGGAGAUUUUUUCCUCGAGCAA
CUCUCGGUAGCCAAGUUGGUUUAAGGCGCAAGACUUUAAUUUAUCACUACGAAAUCUUGAGAUCGGGCUUUCGACUAGCCCCCGGGAGAUUUUUUCCUCGAGCAA
CUCUCGGUAGCCAAGUUGGUUUAAGGCGCAAGACUUUAAUUUAUCACUACGAAAUCUUGAGAUCGGGCUUUCGACUGGCCCCCGGGAGAUUUUUUCCUCGAGCAA
CUCUCGGUAGCCAAGUUGGUUUAAGGCGCAAGACUUUAAUUUAUCACUACGAAAUCUUGAGAUCGGGCUUUCGACUCGCACCCGGGAGAUUUUUUCCUCGAGCAA
CUCUCGGUAGCCAAGUUGGUUUAAGGCGCAAGACUUUAAUUUAUCACUACGAAAUCUUGAGAUCGGGCUUUCGACUCGCCCCAGGGAGAUUUUUUCCUCGAGCAA
CUCUCGGUAGCCAAGUUGGUUUAAGGCGCAAGACUUUAAUUUAUCACUACGAAAUCUUGAGAUCGGGCUUUCGACUCACCUCCGGGAGAUUUUUUCCUCGAGCAA
CUCUCGGUAGCCAAGUUGGUUUAAGGCGCAAGACUUUAAUUUAUCACUACGAAAUCUUGAGAUCGGGCUUUCGACUCGCCCCCGGGACAUUUUUUCCUCGAGCAA
CUCUCGGUAGCCAAGUUGGUUUAAGGCGCAAGACUUUAAUUUAUCACUACGAAAUCUUGAGAUCGGGCUUGCGACUCGCCCCCGGGAGAUUUUUUCCUCGAGCAA
CUCUCGGUAGCCAAGUUGGUUUAAGGCGCAAGACUUUAAUUUAUCACUACGAAAUCUUGAGAUCGGGCGAUCGACUCGCCCCCGGGAGAUUUUUUCCUCGAGCAA
CUCUCGGUAGCCAAGUUGGUUUAAGGCGCAAGACUUUAAUUUAUCACUACGAAAUCUUGAGAUCGGGCGAUCGGCUCGCCCCCGGGAGAUUUUUUCCUCGAGCAA
CUCUCGGUAGCCAAGUUGGUUUAAGGCGCAAGACUUUAAUUUAUCACUACGAAAUCUUGAGAUCGGGCGAUCGACUCGCCCCCGGGAGCUUUUUUCCUCGAGCAA
CUCUCGGUAGCCAAGUUGGUUUAAGGCGCAAGACUUUAAUUUAUCACUACGAAAUCUUGAGAUCGGGCGAUCGACUCGCCCCCGGGAGGUUUUUUCCUCGAGCAA
